Experimental data taken from the supplement of paper PMC9446081.
Screen size: about 39,000 compounds; about 220 (0.56%) showed activity. Some of the results follow.

System: Escherichia coli K-12 BW25113
Test: relative growth (OD600 normalised to plate interquartile mean) (fraction); higher = less growth inhibition, active = 0.2 or less
Settings: 50 µM; LB; incubation time: overnight (16-24 h)
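Note: static incubation at 37 °C against the wild-type strain, values averaged over two biological replicates.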

Which relative growth does the source give for `COCC(=O)N1CC[C@@H]2N(S(C)(=O)=O)CC[C@@]2(C(=O)N2CCOCC2)CC1` here?
Its relative growth is inactive: 0.986.

How did the relative growth turn out when `NCCCN` was run?
The relative growth was inactive: 0.985.

For `C[C@@H]1CN([C@@H](C)CO)C(=O)Cc2cc(NC(=O)Nc3cccc4ccccc34)ccc2O[C@H]1CN(C)Cc1ccc2c(c1)OCO2`, which relative growth is on record?
The relative growth was inactive: 0.995.

With `Cc1ccc(S(=O)(=O)Nc2cccc3c2O[C@H](CN(C)CC2CC2)[C@H](C)CN([C@H](C)CO)C3=O)cc1` as the molecule, how does the relative growth read?
Its relative growth is inactive: 0.98.

For `NCc1ccccc1`, which relative growth is on record?
Its relative growth is inactive: 0.983.

Which relative growth does the source give for `Cc1noc(C)c1S(=O)(=O)N(C)C[C@@H]1Oc2ccc(NS(C)(=O)=O)cc2CC(=O)N([C@@H](C)CO)C[C@@H]1C` here?
The relative growth was inactive: 0.999.

`COc1ccc(NC(=O)N(C)C[C@@H]2Oc3ccc(NC(=O)Nc4cccc5ccccc45)cc3C(=O)N([C@@H](C)CO)C[C@@H]2C)cc1` was tested. Which relative growth did it give?
Its relative growth is inactive: 0.985.

How did the relative growth turn out when `COc1ccc(S(=O)(=O)N(C)C[C@@H]2Oc3ccc(NS(=O)(=O)c4cn(C)cn4)cc3CC(=O)N([C@H](C)CO)C[C@H]2C)cc1` was run?
The relative growth was inactive: 0.961.

How did the relative growth turn out when `CN1CCN(C(=O)C[C@@H]2CC[C@H]3[C@@H](COc4ccc(NC(=O)C5CCOCC5)cc4C(=O)N3C)O2)CC1` was run?
Its relative growth is inactive: 1.03.

How did the relative growth turn out when `NC[C@H]1CC[C@H](C(=O)O)CC1` was run?
Its relative growth is inactive: 1.

Which relative growth does the source give for `C[C@H](CO)N1C[C@H](C)[C@H](CN(C)CC2CCCCC2)Oc2ccc(NS(=O)(=O)c3cn(C)cn3)cc2CC1=O` here?
Its relative growth is inactive: 0.976.

With `COC(=O)c1sc2ccccc2c1NC(=O)c1ccc(S(=O)(=O)N2C[C@@]3(C)C[C@@H]2CC(C)(C)C3)cc1` as the molecule, how does the relative growth read?
Its relative growth is inactive: 1.01.

Which relative growth does the source give for `O=C(O)CCCCCCC(=O)Nc1ccc([C@@H]2O[C@@H](CSCCO)C[C@H](c3ccccc3)O2)cc1` here?
Its relative growth is inactive: 1.02.

For `COc1ccc(S(=O)(=O)Nc2cccc3c2O[C@H](CN(C)S(=O)(=O)c2cn(C)cn2)[C@@H](C)CN([C@@H](C)CO)C3=O)cc1`, which relative growth is on record?
Its relative growth is inactive: 1.02.

How did the relative growth turn out when `COc1ccccc1NC(=O)N(C)C[C@@H]1Oc2cc(Br)ccc2S(=O)(=O)N([C@H](C)CO)C[C@@H]1C` was run?
Its relative growth is inactive: 1.03.

Which relative growth does the source give for `CC(=O)[C@@]12C=CCC[C@@H]1C[C@@H](C(=O)Nc1c(C)cccc1Cl)N2C(=O)c1nc(C)oc1C(F)(F)F` here?
The relative growth was inactive: 1.03.

For `C[C@H](CO)N1C[C@H](C)[C@H](CN(C)C(=O)Nc2ccc3c(c2)OCO3)Oc2ncc(Br)cc2C1=O`, which relative growth is on record?
The relative growth was inactive: 0.891.

With `O=C(C[C@H]1C[C@@H]2c3cc(NC(=O)c4ccc5c(c4)OCO5)ccc3O[C@@H]2[C@@H](CO)O1)NCC(F)(F)F` as the molecule, how does the relative growth read?
The relative growth was inactive: 0.985.

With `CC(C)NC(=O)Nc1ccc2c(c1)C(=O)N([C@H](C)CO)C[C@H](C)[C@H](CN(C)S(=O)(=O)c1ccc(F)cc1)O2` as the molecule, how does the relative growth read?
The relative growth was inactive: 0.998.

For `C[C@@H]1CCCCO[C@@H](CN(C)C)[C@H](C)CN([C@@H](C)CO)C(=O)c2cc(NC(=O)Nc3cccc4ccccc34)ccc2O1`, which relative growth is on record?
Its relative growth is inactive: 0.978.

How did the relative growth turn out when `CO[C@@H]1CN(C)C(=O)c2ccc(NC(=O)c3ccccc3)cc2OC[C@@H](C)N(C(=O)CN(C)C)C[C@H]1C` was run?
Its relative growth is inactive: 0.993.

How did the relative growth turn out when `C[C@H]1CN([C@@H](C)CO)C(=O)c2cc(C#CC3(O)CCCC3)cnc2O[C@@H]1CN(C)C(=O)Nc1ccc2c(c1)OCO2` was run?
Its relative growth is inactive: 0.994.

`C[C@@H]1CCCCO[C@H](CN(C)CC2CCCCC2)[C@H](C)CN([C@@H](C)CO)C(=O)c2cc(NC(=O)Cc3ccccc3)ccc2O1` was tested. Which relative growth did it give?
Its relative growth is inactive: 0.996.

Which relative growth does the source give for `C[C@@H]1CN([C@H](C)CO)C(=O)Cc2cc(NC(=O)C3CC3)ccc2O[C@@H]1CN(C)C(=O)Nc1ccccc1` here?
The relative growth was inactive: 1.01.

With `C=CCC[C@@H](Cc1ccc(F)cc1)C(=O)OC[C@H](Cc1c[nH]c2ccccc12)NC(=O)[C@H](CC=C)CC(=O)N(CCO)Cc1ccccc1` as the molecule, how does the relative growth read?
Its relative growth is inactive: 1.1.

With `C[C@@H]1CN([C@@H](C)CO)S(=O)(=O)c2ccc(Br)cc2O[C@@H]1CN(C)S(=O)(=O)c1ccc(F)cc1` as the molecule, how does the relative growth read?
The relative growth was inactive: 1.04.

Which relative growth does the source give for `O=C(O)c1ccccn1` here?
Its relative growth is inactive: 0.999.

How did the relative growth turn out when `C[C@H](CO)N1C[C@H](C)[C@@H](CN(C)S(C)(=O)=O)OCCCC[C@H](C)Oc2ccc(NS(=O)(=O)c3ccccc3)cc2C1=O` was run?
Its relative growth is inactive: 1.

How did the relative growth turn out when `C[C@@H]1CN([C@H](C)CO)C(=O)c2cccc(NC(=O)CCCCCC(=O)Nc3ccccc3N)c2O[C@@H]1CN(C)Cc1ccc(Oc2ccccc2)cc1` was run?
The relative growth was inactive: 1.03.

How did the relative growth turn out when `C[C@@H]1CN([C@@H](C)CO)C(=O)c2cc(NS(=O)(=O)c3ccc(Cl)cc3)ccc2O[C@@H](C)CCCCO[C@@H]1CN(C)S(=O)(=O)c1cccs1` was run?
Its relative growth is inactive: 1.04.

Which relative growth does the source give for `CCO[C@@H]1OC(=O)C[C@@H]1NC(=O)[C@@H]1CCCN1C(=O)[C@@H](NC(=O)c1ccc(N)c(Cl)c1)C(C)(C)C` here?
The relative growth was inactive: 0.997.

How did the relative growth turn out when `C[C@H](CO)N1C[C@H](C)[C@@H](CN(C)S(=O)(=O)c2cccc(F)c2)Oc2cc(C#CCN(C)C)ccc2S1(=O)=O` was run?
The relative growth was inactive: 0.988.

Which relative growth does the source give for `C[C@@H]1CCCCO[C@H](CN(C)S(=O)(=O)c2ccc(Cl)cc2)[C@@H](C)CN([C@@H](C)CO)C(=O)c2cc(NC(=O)NC3CCCCC3)ccc2O1` here?
Its relative growth is inactive: 1.01.

How did the relative growth turn out when `C[C@H]1CN([C@@H](C)CO)C(=O)c2cc(NC(=O)NC3CCCCC3)ccc2O[C@@H]1CN(C)Cc1ccc(-c2ccccc2)cc1` was run?
The relative growth was inactive: 1.

Which relative growth does the source give for `C[C@H](O)C#Cc1cnc2c(c1)C(=O)N([C@@H](C)CO)C[C@H](C)[C@H](CN(C)Cc1cncnc1)O2` here?
The relative growth was inactive: 0.999.

For `CCCNC(=O)N[C@@H]1CC[C@@H](CC(=O)N2CCN(C)CC2)O[C@@H]1CO`, which relative growth is on record?
The relative growth was inactive: 1.

With `COc1ccc(NC(=O)N(C)C[C@H]2Oc3c(NC(=O)C4CC4)cccc3C(=O)N([C@H](C)CO)C[C@@H]2C)cc1` as the molecule, how does the relative growth read?
Its relative growth is inactive: 1.02.

Which relative growth does the source give for `C[C@@H]1CN([C@H](C)CO)C(=O)c2cc(NC(=O)Cn3cnnn3)ccc2O[C@H]1CN(C)Cc1ccc(Cl)c(Cl)c1` here?
Its relative growth is inactive: 1.01.

For `C[C@@H]1CCCCO[C@H](CN(C)Cc2ccncc2)[C@H](C)CN([C@@H](C)CO)C(=O)c2cc(NC(=O)Nc3ccc(C(F)(F)F)cc3)ccc2O1`, which relative growth is on record?
The relative growth was inactive: 0.979.
